# Laboratory results as given in PMC7819943, “Rice protein-binding microarrays: a tool to detect cis-acting elements near promoter regions in rice”.
# The other results are listed elsewhere or left out.
# Target: T1, OsWOX13 (Oryza sativa, UniProt Q5QMM3 1-267)
# T1 sequence: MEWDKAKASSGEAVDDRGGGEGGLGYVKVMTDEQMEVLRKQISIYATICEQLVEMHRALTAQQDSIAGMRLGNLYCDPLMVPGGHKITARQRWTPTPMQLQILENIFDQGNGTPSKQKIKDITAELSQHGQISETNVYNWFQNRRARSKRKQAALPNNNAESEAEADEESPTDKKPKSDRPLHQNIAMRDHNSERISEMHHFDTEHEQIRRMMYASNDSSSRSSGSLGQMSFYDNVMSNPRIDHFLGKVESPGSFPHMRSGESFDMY
# Assay: protein-binding microarray (RPBM); PBS, 2% BSA, 51.3 ng/ul salmon testes DNA, 50 uM zinc acetate, 200 nM TF, 25 C, 1 h; high values mean tight binding
# Conditions: protein: recombinant; tags: N-terminal polyhistidine and DsRed monomer fusion (pET32a); label: CyDye5-dUTP incorporated in the synthesized complementary strand; 3' TTTTT single-stranded linker to array surface; dsDNA, one strand shown
# Method in brief: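 An Axon 4000B scanner gave the binding signal as per-feature fluorescence intensity in arbitrary units. This followed washing of a custom Agilent array that had been incubated for 1 h at 25 °C with 200 nM protein in PBS, 2% BSA, salmon testes DNA and 50 µM zinc acetate. The proteins were transcription factors fused at the N-terminus to polyhistidine and DsRed, expressed in E. coli BL21-CodonPlus and purified on Ni–NTA.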
row,Sequence,binding signal
1,TTGTTCTTTCGTCATTAGATTGGTCCCATAAAAGATGGGACGGAGTCACCTAGTGCAG,3690 fluorescence intensity (a.u.)
2,TGCACAGATTGAGACTAAATTAGGAGACAAATCTTTTAAGCGGAGTCACCTAGTGCAG,32300 fluorescence intensity (a.u.)
3,TCCTTAATAGAGAAACCAAATTCATCAAACTCAATGGAACCGGAGTCACCTAGTGCAG,13200 fluorescence intensity (a.u.)
4,TAGATTGGCTAGTTAGTTTGACAGAGTGGTTAGTGAAGGACGGAGTCACCTAGTGCAG,24900 fluorescence intensity (a.u.)
5,ATGTGATGGATGTTATTCTTGGCCCGATGGAGATAACTTTCGGAGTCACCTAGTGCAG,8500 fluorescence intensity (a.u.)
6,AGATAGCTAATTACATAGGGAAAGAGTGGAAGCAATGTGGCGGAGTCACCTAGTGCAG,6340 fluorescence intensity (a.u.)
7,TCTAATTGAAATTATTGTGTTTATGTATAAAGACAAATACCGGAGTCACCTAGTGCAG,24900 fluorescence intensity (a.u.)
8,TTATGTAATTATCATTTATTTTATTGTGACTTGATTCGTCCGGAGTCACCTAGTGCAG,24800 fluorescence intensity (a.u.)
9,TCACAACGATTTACGGTTAATTATTATTTCAGTGGTAGACCGGAGTCACCTAGTGCAG,6110 fluorescence intensity (a.u.)
10,CGGTTCATTAACACATGATTAATTAAGTATTAGTTAAATTCGGAGTCACCTAGTGCAG,17900 fluorescence intensity (a.u.)
11,TTGACAAAATGAATAAATTTGGACTTGGGCTGCGTTCGATCGGAGTCACCTAGTGCAG,6560 fluorescence intensity (a.u.)
12,CTCTAGTTCAGCTGTTTAAACCCACAGTTTAACATTGCTTCGGAGTCACCTAGTGCAG,7900 fluorescence intensity (a.u.)
13,CATTCTAATTAGCAATGGTCACCACGAATGATTAATGTAGCGGAGTCACCTAGTGCAG,28200 fluorescence intensity (a.u.)
14,TGTTAAATTGCTGTTAAATTCTTAAACAACTCAAACATCGCGGAGTCACCTAGTGCAG,30800 fluorescence intensity (a.u.)
15,AGCTCTATAATTTTACAATTTAAAATTATATTATATAAAGCGGAGTCACCTAGTGCAG,20400 fluorescence intensity (a.u.)
16,TCACACATAATTGACTTCACCTGTAAAACAAGTGAGCGAACGGAGTCACCTAGTGCAG,19600 fluorescence intensity (a.u.)
17,GTATTTAATTAGCTCCTCGTCTTGTTCTGCTAAGCTACTACGGAGTCACCTAGTGCAG,20400 fluorescence intensity (a.u.)
18,ATCAAAACATAGTATCAATTATCAAGAACCGCCGCACCACCGGAGTCACCTAGTGCAG,3580 fluorescence intensity (a.u.)
19,GTATACAGGAGATCGATTAATTAATACTCCAAATTACACACGGAGTCACCTAGTGCAG,3370 fluorescence intensity (a.u.)
20,ATGGGAAAGTAAATCAATTAACATATATACTCGTTTAAAACGGAGTCACCTAGTGCAG,9870 fluorescence intensity (a.u.)
21,GAACCCTGATATAATCACATTTTCAACTGTGATATCCGCTCGGAGTCACCTAGTGCAG,3540 fluorescence intensity (a.u.)

row,Sequence,binding signal
1,GACAACGACATCAATCAACGAAGCGCTGGCAGAGACGGCGCGGAGTCACCTAGTGCAG,15800 fluorescence intensity (a.u.)
2,ACAAATTGTAATAACTCAGCGAGTAGAAATTTTAACAATGCGGAGTCACCTAGTGCAG,10500 fluorescence intensity (a.u.)
3,GCTCTAAGGGTGGGTTTTGATGGGAGGTTTTGGATGGATACGGAGTCACCTAGTGCAG,6370 fluorescence intensity (a.u.)
4,GTATGGATTAGGTGGTATGATTGAGATGCCACACTGCCTTCGGAGTCACCTAGTGCAG,25900 fluorescence intensity (a.u.)
5,TACTGATGATCGATTAAAATGCTAACCCGGATATGACGAACGGAGTCACCTAGTGCAG,6570 fluorescence intensity (a.u.)
6,CAAAACTAATTTTCTTGGCGGGTTTAGGTGATGTGGCATCCGGAGTCACCTAGTGCAG,21700 fluorescence intensity (a.u.)
7,TCTTAATTGAAAGAGTTTTCATCATGTCTTTCAGTCACCACGGAGTCACCTAGTGCAG,53900 fluorescence intensity (a.u.)
8,AGTTTTACAATAAATTTACTGTTATAAATATACATTTAACCGGAGTCACCTAGTGCAG,6140 fluorescence intensity (a.u.)
9,CCATGCCTTGCCGATTTAATTAGCGGTTAATTATCCTCATCGGAGTCACCTAGTGCAG,11800 fluorescence intensity (a.u.)
10,GTGTAATTATCTTCTCTTTACATATACTGCATACGTCAAGCGGAGTCACCTAGTGCAG,32700 fluorescence intensity (a.u.)
11,TTGTTTACTTGATTAACATGATAAATTAAGTTTGAAGAAACGGAGTCACCTAGTGCAG,13100 fluorescence intensity (a.u.)
12,TTGACCAATTAATTATAATCAAAGCAAAACGTGAGAGTGCCGGAGTCACCTAGTGCAG,29800 fluorescence intensity (a.u.)
13,TGCCGCTAATCAGTGACGCAGAGTCACAAATGAACACCATCGGAGTCACCTAGTGCAG,8580 fluorescence intensity (a.u.)
14,AAGATAAAATGTATGATTGTATGCCTAATTTGAATAGTGGCGGAGTCACCTAGTGCAG,15900 fluorescence intensity (a.u.)
15,CAAAATCTGGAAATTACAGATTTCAGTTAACCTACTTTGCCGGAGTCACCTAGTGCAG,5910 fluorescence intensity (a.u.)
16,GAGCAGATGATTAGTGAAGGTGTAACCCCTAACATCGTTACGGAGTCACCTAGTGCAG,12900 fluorescence intensity (a.u.)
17,CTTCAATAATTAATTTATATTGTACTAATATGTTTGTAAACGGAGTCACCTAGTGCAG,17900 fluorescence intensity (a.u.)
18,AATTTACAAATGTAATTTTAGTTATATATGACTGTAATTTCGGAGTCACCTAGTGCAG,4150 fluorescence intensity (a.u.)
19,TGCATAGCCATCAATTTACATTATCTTAAATCTCATATGGCGGAGTCACCTAGTGCAG,4740 fluorescence intensity (a.u.)
20,TAATTAATTAAGCCTATCACCGAAGCAAATTAGAATTTTACGGAGTCACCTAGTGCAG,18600 fluorescence intensity (a.u.)
21,CACATGATTGTGTTTTCAACTCTGAACCTTTTCTTGTGTTCGGAGTCACCTAGTGCAG,35000 fluorescence intensity (a.u.)
